# Laboratory results taken from the supplement of paper PMC8728848.
# Some of the results follow.
# B1: Neuropilin-2 (Homo sapiens), O60462 (protein)
# chain: MDMFPLTWVFLALYFSRHQVRGQPDPPCGGRLNSKDAGYITSPGYPQDYPSHQNCEWIVYAPEPNQKIVLNFNPHFEIEKHDCKYDFIEIRDGDSESADLLGKHCGNIAPPTIISSGSMLYIKFTSDYARQGAGFSLRYEIFKTGSEDCSKNFTSPNGTIESPGFPEKYPHNLDCTFTILAKPKMEIILQFLIFDLEHDPLQVGEGDCKYDWLDIWDGIPHVGPLIGKYCGTKTPSELRSSTGILSLTFHTDMAVAKDGFSARYYLVHQEPLENFQCNVPLGMESGRIANEQISASSTYSDGRWTPQQSRLHGDDNGWTPNLDSNKEYLQVDLRFLTMLTAIATQGAISRETQNGYYVKSYKLEVSTNGEDWMVYRHGKNHKVFQANNDATEVVLNKLHAPLLTRFVRIRPQTWHSGIALRLELFGCRVTDAPCSNMLGMLSGLIADSQISASSTQEYLWSPSAARLVSSRSGWFPRIPQAQPGEEWLQVDLGTPKTVKGVIIQGARGGDSITAVEARAFVRKFKVSYSLNGKDWEYIQDPRTQQPKLFEGNMHYDTPDIRRFDPIPAQYVRVYPERWSPAGIGMRLEVLGCDWTDSKPTVETLGPTVKSEETTTPYPTEEEATECGENCSFEDDKDLQLPSGFNCNFDFLEEPCGWMYDHAKWLRTTWASSSSPNDRTFPDDRNFLRLQSDSQREGQYARLISPPVHLPRSPVCMEFQYQATGGRGVALQVVREASQESKLLWVIREDQGGEWKHGRIILPSYDMEYQIVFEGVIGKGRSGEIAIDDIRISTDVPLENCMEPISAFAGENFKVDIPEIHEREGYEDEIDDEYEVDWSNSSSATSGSGAPSTDKEKSWLYTLDPILITIIAMSSLGVLLGATCAGLLLYCTCSYSGLSSRSCTTLENYNFELYDGLKHKVKMNHQKCCSEA
# Columns and labels:
# Assay in all cases: glycan array binding signal (z-score within array); higher = stronger binding
# Settings in all cases: glycan notation: IUPAC condensed, linker removed
# [1] = target: Neu5Ac(a2-3)Gal(b1-4)[Fuc(a1-3)]GlcNAc(b1-3)Gal
# How it was run: (§1)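 Glycan array data were curated from 3228 arrays in the Consortium for Functional Glycomics database and kept only where the protein sequence was available. Glycan names were converted to IUPAC-condensed notation, and columns mapping to the same glycan were averaged. The binding signal is a within-array Z-score, averaged across arrays of the same protein sequence at different concentrations or buffers and across linkers. Negative Z-scores can be read as non-binding.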
# [2] = target: Neu5Ac(a2-3)Gal(b1-4)[Fuc(a1-3)]GlcNAc(b1-3)Gal(b1-4)GlcNAc
# How it was run: as §1
# [3] = target: Neu5Ac(a2-3)Gal(b1-4)[Fuc(a1-3)]GlcNAc(b1-3)Gal(b1-4)[Fuc(a1-3)]GlcNAc(b1-3)Gal(b1-4)[Fuc(a1-3)]GlcNAc
# How it was run: as §1
# [4] = target: Neu5Ac(a2-3)Gal(b1-4)[Fuc(a1-3)]GlcNAc(b1-3)GalNAc
# How it was run: as §1
# [5] = target: Neu5Ac(a2-3)Gal(b1-4)[Fuc(a1-3)]GlcNAc(b1-6)[Gal(b1-3)]GalNAc
# How it was run: as §1
# [6] = target: Neu5Ac(a2-3)Gal(b1-4)[Fuc(a1-3)]GlcNAc(b1-6)[Neu5Ac(a2-3)Gal(b1-3)]GalNAc
# How it was run: as §1
# [7] = target: Neu5Ac(a2-3)Gal(b1-4)[Fuc(a1-3)]GlcNAc6S
# How it was run: as §1
# [8] = target: Neu5Ac(a2-3)Gal6S(b1-4)GlcNAc
# How it was run: as §1
# [9] = target: Neu5Ac(a2-3)Gal6S(b1-4)[Fuc(a1-3)]GlcNAc
# How it was run: as §1
# Neu5Ac(a2-3)GalNAc = target: Neu5Ac(a2-3)GalNAc
# How it was run: as §1
# [10] = target: Neu5Ac(a2-3)GalNAc(b1-4)GlcNAc
# How it was run: as §1
# [11] = target: Neu5Ac(a2-3)[GalNAc(b1-4)]Gal(b1-4)Glc
# How it was run: as §1
# [12] = target: Neu5Ac(a2-3)[GalNAc(b1-4)]Gal(b1-4)GlcNAc
# How it was run: as §1
# [13] = target: Neu5Ac(a2-3)[Neu5Ac(a2-6)]GalNAc
# How it was run: as §1
# Neu5Ac(a2-6)Gal = target: Neu5Ac(a2-6)Gal
# How it was run: as §1
# Neu5Ac(a2-6)Gal(b1-4)Glc = target: Neu5Ac(a2-6)Gal(b1-4)Glc
# How it was run: as §1
# [14] = target: Neu5Ac(a2-6)Gal(b1-4)GlcNAc
# How it was run: as §1
# [15] = target: Neu5Ac(a2-6)Gal(b1-4)GlcNAc(b1-2)Man(a1-3)Man(b1-4)GlcNAc(b1-4)GlcNAc
# How it was run: as §1
# [16] = target: Neu5Ac(a2-6)Gal(b1-4)GlcNAc(b1-2)Man(a1-3)[Gal(b1-4)GlcNAc(b1-2)Man(a1-6)]Man(b1-4)GlcNAc(b1-4)GlcNAc
# How it was run: as §1
# [17] = target: Neu5Ac(a2-6)Gal(b1-4)GlcNAc(b1-2)Man(a1-3)[GlcNAc(b1-2)Man(a1-6)]Man(b1-4)GlcNAc(b1-4)GlcNAc
# How it was run: as §1
# [18] = target: Neu5Ac(a2-6)Gal(b1-4)GlcNAc(b1-2)Man(a1-3)[GlcNAc(b1-2)Man(b1-4)GlcNAc(b1-2)Man(a1-6)]Man(b1-4)GlcNAc(b1-4)GlcNAc
# How it was run: as §1
# [19] = target: Neu5Ac(a2-6)Gal(b1-4)GlcNAc(b1-2)Man(a1-3)[Man(a1-6)]Man(b1-4)GlcNAc(b1-4)GlcNAc
# How it was run: as §1
# [20] = target: Neu5Ac(a2-6)Gal(b1-4)GlcNAc(b1-2)Man(a1-3)[Neu5Ac(a2-6)Gal(b1-4)GlcNAc(b1-2)Man(a1-6)]Man(b1-4)GlcNAc(b1-4)GlcNAc
# How it was run: as §1
# [21] = target: Neu5Ac(a2-6)Gal(b1-4)GlcNAc(b1-2)Man(a1-6)Man(b1-4)GlcNAc(b1-4)GlcNAc
# How it was run: as §1
# [22] = target: Neu5Ac(a2-6)Gal(b1-4)GlcNAc(b1-2)Man(a1-6)[Gal(b1-4)GlcNAc(b1-2)Man(a1-3)]Man(b1-4)GlcNAc(b1-4)GlcNAc
# How it was run: as §1
# [23] = target: Neu5Ac(a2-6)Gal(b1-4)GlcNAc(b1-2)Man(a1-6)[GlcNAc(b1-2)Man(a1-3)]Man(b1-4)GlcNAc(b1-4)GlcNAc
# How it was run: as §1
# [24] = target: Neu5Ac(a2-6)Gal(b1-4)GlcNAc(b1-2)Man(a1-6)[Man(a1-3)]Man(b1-4)GlcNAc(b1-4)GlcNAc
# How it was run: as §1
# [25] = target: Neu5Ac(a2-6)Gal(b1-4)GlcNAc(b1-3)Gal(b1-3)GlcNAc
# How it was run: as §1
binder,measurement,setting,value
B1,glycan array binding signal (z-score),[1],-0.587
same,glycan array binding signal (z-score),[2],3.79
same,glycan array binding signal (z-score),[3],-0.375
same,glycan array binding signal (z-score),[4],1.02
same,glycan array binding signal (z-score),[5],-0.31
same,glycan array binding signal (z-score),[6],2.82
same,glycan array binding signal (z-score),[7],-0.131
same,glycan array binding signal (z-score),[8],0.172
same,glycan array binding signal (z-score),[9],-0.394
same,glycan array binding signal (z-score),Neu5Ac(a2-3)GalNAc,-0.766
same,glycan array binding signal (z-score),[10],0.369
same,glycan array binding signal (z-score),[11],-0.339
same,glycan array binding signal (z-score),[12],-0.107
same,glycan array binding signal (z-score),[13],-0.602
same,glycan array binding signal (z-score),Neu5Ac(a2-6)Gal,-0.513
same,glycan array binding signal (z-score),Neu5Ac(a2-6)Gal(b1-4)Glc,0.038
same,glycan array binding signal (z-score),[14],-0.43
same,glycan array binding signal (z-score),[15],-0.201
same,glycan array binding signal (z-score),[16],-0.507
same,glycan array binding signal (z-score),[17],-0.609
same,glycan array binding signal (z-score),[18],-0.465
same,glycan array binding signal (z-score),[19],-0.229
same,glycan array binding signal (z-score),[20],-0.493
same,glycan array binding signal (z-score),[21],-0.583
same,glycan array binding signal (z-score),[22],-0.053
same,glycan array binding signal (z-score),[23],-0.143
same,glycan array binding signal (z-score),[24],-0.625
same,glycan array binding signal (z-score),[25],-0.622
